In the supplement of paper PMC8728848:
Some of the results follow.

What was measured:
Experiment in all cases: glycan array binding signal (z-score within array); higher = stronger binding
Details in all cases: glycan notation: IUPAC condensed, linker removed
GlcNAc(b1-3)GalNAc = molecular target: GlcNAc(b1-3)GalNAc
In short: (§1)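 Columns mapping to the same glycan were averaged after glycan names were converted to IUPAC-condensed notation. The data come from 3228 arrays in the Consortium for Functional Glycomics database, limited to those with an available protein sequence. Binding is reported as a within-array Z-score averaged across arrays of one protein sequence and across linkers.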

GlcNAc(b1-3)Man = molecular target: GlcNAc(b1-3)Man
In short: as §1

[1] = molecular target: GlcNAc(b1-3)[GlcNAc(b1-4)][GlcNAc(b1-6)]GlcNAc
In short: as §1

[2] = molecular target: GlcNAc(b1-3)[GlcNAc(b1-6)]Gal(b1-4)GlcNAc
In short: as §1

[3] = molecular target: GlcNAc(b1-3)[GlcNAc(b1-6)]GalNAc
In short: as §1

[4] = molecular target: GlcNAc(b1-4)Gal(b1-4)GlcNAc
In short: as §1

GlcNAc(b1-4)GlcNAc = molecular target: GlcNAc(b1-4)GlcNAc
In short: as §1

[5] = molecular target: GlcNAc(b1-4)GlcNAc(b1-4)GlcNAc
In short: as §1

[6] = molecular target: GlcNAc(b1-4)GlcNAc(b1-4)GlcNAc(b1-4)GlcNAc(b1-4)GlcNAc
In short: as §1

[7] = molecular target: GlcNAc(b1-4)GlcNAc(b1-4)GlcNAc(b1-4)GlcNAc(b1-4)GlcNAc(b1-4)GlcNAc
In short: as §1

[8] = molecular target: GlcNAc(b1-4)[GlcNAc(b1-6)]GalNAc
In short: as §1

[9] = molecular target: GlcNAc(b1-6)Gal(b1-4)GlcNAc
In short: as §1

GlcNAc(b1-6)GalNAc = molecular target: GlcNAc(b1-6)GalNAc
In short: as §1

[10] = molecular target: GlcNAc6S(b1-3)Gal(b1-4)GlcNAc
In short: as §1

Kdn(a2-3)Gal(b1-3)GalNAc = molecular target: Kdn(a2-3)Gal(b1-3)GalNAc
In short: as §1

Kdn(a2-3)Gal(b1-3)GlcNAc = molecular target: Kdn(a2-3)Gal(b1-3)GlcNAc
In short: as §1

Kdn(a2-3)Gal(b1-4)Glc = molecular target: Kdn(a2-3)Gal(b1-4)Glc
In short: as §1

Kdn(a2-3)Gal(b1-4)GlcNAc = molecular target: Kdn(a2-3)Gal(b1-4)GlcNAc
In short: as §1

[11] = molecular target: Kdn(a2-3)Gal(b1-4)[Fuc(a1-3)]GlcNAc
In short: as §1

Kdn(a2-6)Gal(b1-4)GlcNAc = molecular target: Kdn(a2-6)Gal(b1-4)GlcNAc
In short: as §1

[12] = molecular target: Man(a1-2)Man(a1-2)Man(a1-3)Man
In short: as §1

[13] = molecular target: Man(a1-2)Man(a1-2)Man(a1-6)[Man(a1-3)]Man
In short: as §1

Man(a1-2)Man(a1-3)Man = molecular target: Man(a1-2)Man(a1-3)Man
In short: as §1

[14] = molecular target: Man(a1-2)Man(a1-3)[Man(a1-2)Man(a1-6)]Man
In short: as §1

[15] = molecular target: Man(a1-2)Man(a1-3)[Man(a1-2)Man(a1-6)]Man(a1-6)[Man(a1-2)Man(a1-2)Man(a1-3)]Man
In short: as §1

[16] = molecular target: Man(a1-2)Man(a1-3)[Man(a1-2)Man(a1-6)]Man(a1-6)[Man(a1-2)Man(a1-2)Man(a1-3)]Man(b1-4)GlcNAc(b1-4)GlcNAc
In short: as §1

[17] = molecular target: Man(a1-2)Man(a1-3)[Man(a1-6)]Man(a1-6)[Man(a1-2)Man(a1-3)]Man(b1-4)GlcNAc(b1-4)GlcNAc
In short: as §1

[18] = molecular target: Man(a1-2)Man(a1-6)[Man(a1-3)]Man(a1-6)[Man(a1-2)Man(a1-2)Man(a1-3)]Man
In short: as §1

[19] = molecular target: Man(a1-2)Man(a1-6)[Man(a1-3)]Man(a1-6)[Man(a1-2)Man(a1-2)Man(a1-3)]Man(b1-4)GlcNAc(b1-4)GlcNAc
In short: as §1

Man(a1-3)[Man(a1-6)]Man = molecular target: Man(a1-3)[Man(a1-6)]Man
In short: as §1

[20] = molecular target: Man(a1-3)[Man(a1-6)]Man(a1-6)[Man(a1-2)Man(a1-3)]Man(b1-4)GlcNAc(b1-4)GlcNAc
In short: as §1

[21] = molecular target: Man(a1-3)[Man(a1-6)]Man(a1-6)[Man(a1-3)]Man
In short: as §1

[22] = molecular target: Man(a1-3)[Man(a1-6)]Man(a1-6)[Man(a1-3)]Man(b1-4)GlcNAc(b1-4)GlcNAc
In short: as §1

[23] = molecular target: Man(a1-3)[Man(a1-6)]Man(b1-4)GlcNAc(b1-4)GlcNAc
In short: as §1

[24] = molecular target: Man(a1-3)[Man(a1-6)]Man(b1-4)GlcNAc(b1-4)[Fuc(a1-6)]GlcNAc
In short: as §1

Man(a1-6)Man = molecular target: Man(a1-6)Man
In short: as §1

Man(b1-4)GlcNAc = molecular target: Man(b1-4)GlcNAc
In short: as §1

MurNAc(b1-4)GlcNAc = molecular target: MurNAc(b1-4)GlcNAc
In short: as §1

B1: Siglec-9 (Homo sapiens), Q9Y336 (protein)
chain: MLLLLLPLLWGRERAEGQTSKLLTMQSSVTVQEGLCVHVPCSFSYPSHGWIYPGPVVHGYWFREGANTDQDAPVATNNPARAVWEETRDRFHLLGDPHTKNCTLSIRDARRSDAGRYFFRMEKGSIKWNYKHHRLSVNVTALTHRPNILIPGTLESGCPQNLTCSVPWACEQGTPPMISWIGTSVSPLDPSTTRSSVLTLIPQPQDHGTSLTCQVTFPGASVTTNKTVHLNVSYPPQNLTMTVFQGDGTVSTVLGNGSSLSLPEGQSLRLVCAVDAVDSNPPARLSLSWRGLTLCPSQPSNPGVLELPWVHLRDAAEFTCRAQNPLGSQQVYLNVSLQSKATSGVTQGVVGGAGATALVFLSFCVIFVVVRSCRKKSARPAAGVGDTGIEDANAVRGSASQGPLTEPWAEDSPPDQPPPASARSSVGEGELQYASLSFQMVKPWDSRGQEATDTEYSEIKIHR
glycan array binding signal (z-score) (GlcNAc(b1-3)GalNAc): -0.152
glycan array binding signal (z-score) (GlcNAc(b1-3)Man): -0.211
glycan array binding signal (z-score) [1]: -0.195
glycan array binding signal (z-score) [2]: -0.322
glycan array binding signal (z-score) [3]: -0.138
glycan array binding signal (z-score) [4]: 0.012
glycan array binding signal (z-score) (GlcNAc(b1-4)GlcNAc): -0.238
glycan array binding signal (z-score) [5]: -0.25
glycan array binding signal (z-score) [6]: -0.137
glycan array binding signal (z-score) [7]: -0.468
glycan array binding signal (z-score) [8]: -0.132
glycan array binding signal (z-score) [9]: -0.081
glycan array binding signal (z-score) (GlcNAc(b1-6)GalNAc): -0.252
glycan array binding signal (z-score) [10]: -0.385
glycan array binding signal (z-score) (Kdn(a2-3)Gal(b1-3)GalNAc): 0.069
glycan array binding signal (z-score) (Kdn(a2-3)Gal(b1-3)GlcNAc): -0.163
glycan array binding signal (z-score) (Kdn(a2-3)Gal(b1-4)Glc): -0.058
glycan array binding signal (z-score) (Kdn(a2-3)Gal(b1-4)GlcNAc): -0.136
glycan array binding signal (z-score) [11]: -0.31
glycan array binding signal (z-score) (Kdn(a2-6)Gal(b1-4)GlcNAc): -0.147
glycan array binding signal (z-score) [12]: -0.078
glycan array binding signal (z-score) [13]: -0.263
glycan array binding signal (z-score) (Man(a1-2)Man(a1-3)Man): -0.256
glycan array binding signal (z-score) [14]: -0.182
glycan array binding signal (z-score) [15]: -0.055
glycan array binding signal (z-score) [16]: -0.286
glycan array binding signal (z-score) [17]: -0.451
glycan array binding signal (z-score) [18]: -0.135
glycan array binding signal (z-score) [19]: 0.09
glycan array binding signal (z-score) (Man(a1-3)[Man(a1-6)]Man): -0.144
glycan array binding signal (z-score) [20]: -0.158
glycan array binding signal (z-score) [21]: -0.224
glycan array binding signal (z-score) [22]: -0.007
glycan array binding signal (z-score) [23]: -0.235
glycan array binding signal (z-score) [24]: -0.082
glycan array binding signal (z-score) (Man(a1-6)Man): -0.173
glycan array binding signal (z-score) (Man(b1-4)GlcNAc): -0.223
glycan array binding signal (z-score) (MurNAc(b1-4)GlcNAc): -0.143
